In the supplement of paper PMC10126150:
Values marked as one replicate rest on one cluster of the flow cell; about a third of the high ones do not repeat.

Tested on: ATP
Experiment: switch fluorescence ratio, 500 uM ATP over buffer (Cy3 cluster intensity, sum of 5 cycles each) (fold (ratio)); higher = stronger signal-on switching upon ATP binding; sequences stand for … in TCGTCGGCAGCGTCAGATGTGTATAAGAGACAGTTTTTTTTTTTTTTTTTTTTTTTTT…TC
Conditions: aptamer strand: ATP DNA aptamer (quencher-CACCTGGGGGAGTATTGCGGAGGAAGG + anchor), 100 nM annealed; ATP concentration: 500 uM; one replicate
Procedure, shortened: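 Cy3-labelled switching-strand clusters on a modified Illumina MiSeq flow-cell were annealed to 100 nM quencher-labelled ATP aptamer, imaged in selection buffer, then imaged after 15 min with 500 uM ATP at 22 °C. Five buffer/ATP cycles ran, with NaOH stripping and re-annealing between them. The fluorescence ratio is summed target-cycle over summed buffer-cycle Cy3 intensity per cluster, averaged per switch-domain sequence. Clusters outside 100-1000 RFU were excluded.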
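Also: ATP exposure 15 min at 22 °C before imaging.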

AGGTGAGAAC
switch fluorescence ratio: 1.02

CTTGTCGCTG
switch fluorescence ratio: 0.981

TACTAGGCTT
switch fluorescence ratio: 1.02

GTACCCAAAT
switch fluorescence ratio: 0.967

AGACAGTTCA
switch fluorescence ratio: 0.973

ATGAGGCTG
switch fluorescence ratio: 0.97

ATCAGTTGCA
switch fluorescence ratio: 1.02

CTCACTGCGA
switch fluorescence ratio: 1.67

CAAGAGAGGT
switch fluorescence ratio: 1.02

CCAAAACGCC
switch fluorescence ratio: 1.06

GCAAACCGAT
switch fluorescence ratio: 1.1

AGAGGGCGCT
switch fluorescence ratio: 0.93

CGGCTTTGC
switch fluorescence ratio: 1.09

ACTGCGGCCG
switch fluorescence ratio: 1.02

CGATAACGGA
switch fluorescence ratio: 1.02

AGGAATATTC
switch fluorescence ratio: 1.04

GCTGGCTTAA
switch fluorescence ratio: 0.978

GGATTTACAA
switch fluorescence ratio: 0.98

ATGGCTAA
switch fluorescence ratio: 0.954

TTACGATGTT
switch fluorescence ratio: 0.999

ACGGTTGGCA
switch fluorescence ratio: 0.981

GCCGTCTTTT
switch fluorescence ratio: 0.985

ATTTTATGGC
switch fluorescence ratio: 0.986

ATACCTAACT
switch fluorescence ratio: 1.19

GCATAGGGGA
switch fluorescence ratio: 1.07

GCCTTCCGCC
switch fluorescence ratio: 4.7

CCTGATTACA
switch fluorescence ratio: 1

CAGGGAAATA
switch fluorescence ratio: 0.99

TATCAATCTG
switch fluorescence ratio: 1.03

CTGGCTTTTC
switch fluorescence ratio: 1

GGGACCTCCT
switch fluorescence ratio: 1.01

ATCTAGCGCG
switch fluorescence ratio: 1.06

CTCCTAAACT
switch fluorescence ratio: 1.11

GGGGACCACG
switch fluorescence ratio: 1.02

TTAGACTGTA
switch fluorescence ratio: 0.995

TAGAATTAGA
switch fluorescence ratio: 1.01

AGTCAGACAA
switch fluorescence ratio: 1.02

GTCGCCCTGA
switch fluorescence ratio: 0.995

GTCGCTCAAG
switch fluorescence ratio: 1

TAGCGTAAGC
switch fluorescence ratio: 0.968

AGCAGTTTGT
switch fluorescence ratio: 0.988

ACACGGTACC
switch fluorescence ratio: 1.49

GAGAATAACT
switch fluorescence ratio: 1.03

TTAGTTACAG
switch fluorescence ratio: 1.01

TCTGCATTGA
switch fluorescence ratio: 1.07

TATAAGGCGG
switch fluorescence ratio: 1

CCTCGCCTGG
switch fluorescence ratio: 1.84

CAGCGGCAGG
switch fluorescence ratio: 1.05

AGCCCATCGA
switch fluorescence ratio: 1.01

TGTTTTCGGC
switch fluorescence ratio: 0.998

ACATACTACC
switch fluorescence ratio: 1.39

CTTAGACGAC
switch fluorescence ratio: 1.02

GAAGCCTGGG
switch fluorescence ratio: 1.03

CGCACAGTG
switch fluorescence ratio: 1.32

GTCGGATGCA
switch fluorescence ratio: 1.01

GGTACATATA
switch fluorescence ratio: 1

AAGCTGGAAG
switch fluorescence ratio: 0.979

TAATTCTTGT
switch fluorescence ratio: 1

TCGCTGGGTG
switch fluorescence ratio: 1.26

ATCGGGTATA
switch fluorescence ratio: 0.981

TATATGCTAT
switch fluorescence ratio: 1.01

ATCGTCGGGT
switch fluorescence ratio: 0.97

GTGGCCGGAG
switch fluorescence ratio: 1.02

TCGCAAAGAT
switch fluorescence ratio: 1.42

TTGCGGA
switch fluorescence ratio: 0.972

AACTGCCCCA
switch fluorescence ratio: 0.98

AGTCAGGCGG
switch fluorescence ratio: 1.03

CTGATGCGC
switch fluorescence ratio: 1.53

GAGGTATACA
switch fluorescence ratio: 1.2

AGCATAAATT
switch fluorescence ratio: 0.972

CGACGGCAAG
switch fluorescence ratio: 1.32

ACATCAAAGG
switch fluorescence ratio: 1.07

ATGGCTTTAC
switch fluorescence ratio: 1.12

TCACGTTGA
switch fluorescence ratio: 1.04

CCACTATAGC
switch fluorescence ratio: 1.23

CGGATCTCAC
switch fluorescence ratio: 1.03

CGTACTATGT
switch fluorescence ratio: 1

TAAGATAGC
switch fluorescence ratio: 0.999

GAGCCAAGCT
switch fluorescence ratio: 1

ACGACCACGC
switch fluorescence ratio: 1.12

CAGTGTCAGC
switch fluorescence ratio: 0.959

GGCCATAGCG
switch fluorescence ratio: 0.983

TTAGAAAATG
switch fluorescence ratio: 0.985

ACTGCCACGT
switch fluorescence ratio: 1.26

GTCGGATTAA
switch fluorescence ratio: 0.981

CAGGGATATC
switch fluorescence ratio: 0.986

GTTGTTTCT
switch fluorescence ratio: 0.994

TAAGACGCTA
switch fluorescence ratio: 1.13

ACCTGTTTG
switch fluorescence ratio: 0.991

ATGAATTAGG
switch fluorescence ratio: 0.966

AAAGGTCATC
switch fluorescence ratio: 1.03

GCGATGAGGT
switch fluorescence ratio: 1.02

ACTGTATGGA
switch fluorescence ratio: 1.16

TAGAATTGGA
switch fluorescence ratio: 1.05

GCAGTGCAGT
switch fluorescence ratio: 0.958

CCCGGGAACC
switch fluorescence ratio: 0.992

AGGGCGATGA
switch fluorescence ratio: 1.01

CTTCGGTCTG
switch fluorescence ratio: 0.969

TTGTGATTGA
switch fluorescence ratio: 1.04

CCACGGTGTT
switch fluorescence ratio: 1.11

GTATCCCTTG
switch fluorescence ratio: 0.941
